According to the supplement of paper PMC10369915:
The list shows a part of the results. No stated cut-off is given here; in the data, active = 3.2 or more and inactive = the rest. Most of these values are background signal.

target: SHP2 C-SH2 domain E139D; test: enrichment score (SH2-bound / input frequency) (ratio); bacterial display of known human phosphotyrosine sites (pTyr-Var adds point mutants) read by sequencing; higher = stronger binding; tyrosines were phosphorylated by kinases first; details: peptide library: pTyr-Var
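Further: displayed peptides selected on beads carrying the immobilized SH2 domain, with library peptides lacking any tyrosine serving as negative controls.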

| Binder | enrichment score |
| --- | --- |
| ERNTVYSSSGV [NELL2_Y350] | inactive: 0.64 |
| SLFNGYVFSGV [NEIL3_Y71_YF] | inactive: 1.2 |
| KGSEGYLAATF [NF1_Y2503_YF] | inactive: 0.792 |
| MFNPFYGLFEF [NEDD4L_Y680_YF] | active: 3.9 |
| KGSEGYLAAIF [NF1_Y2503_T2507I_YF] | inactive: 0.532 |
| EMFNPYYGLFE [NEDD4L_Y679] | inactive: 1.39 |
| SFLSFYTSHVQ [NEFL_Y443_P440L_YF] | inactive: 3.19 |
| RAFSWYQHQRA [NDST1_Y714_YF] | inactive: 2.21 |
| KEDSAYGSQSV [NFKB2_Y868] | inactive: 0.462 |
| KEGSAYGSQSV [NFKB2_Y868_D865G] | inactive: 0.579 |
| SESSFYKSLNL [NGEF_Y289_A286S_YF] | inactive: 0.654 |
| YLAATYPTVGQ [NF1_Y2508] | inactive: 0.714 |
| RSFPSYFTSHV [NEFL_Y442_YF] | inactive: 1.42 |
| ILGRTHFVNHE [NEDD4_Y627_Y627H_YF] | inactive: 1.23 |
| SFPSYYTSHVQ [NEFL_Y443] | inactive: 1.27 |
| FLAAIYPTVGQ [NF1_Y2508_T2507I_YF] | inactive: 1.77 |
| FPKDVYVDSKD [NDUFAF4_Y69_L65P] | inactive: 0.79 |
| MFNPYYGLFEY [NEDD4L_Y680] | inactive: 2.38 |
| SIGLGYHKDLQ [NF1_Y1169] | inactive: 0.841 |

target: SHP2 C-SH2 domain wild-type; test: as above; details: peptide library: pTyr-Var

| Binder | enrichment score |
| --- | --- |
| ERNTVYSSSGV [NELL2_Y350] | inactive: 0.58 |
| SLFNGYVFSGV [NEIL3_Y71_YF] | inactive: 1.21 |
| KGSEGYLAATF [NF1_Y2503_YF] | inactive: 0.53 |
| MFNPFYGLFEF [NEDD4L_Y680_YF] | inactive: 3.09 |
| KGSEGYLAAIF [NF1_Y2503_T2507I_YF] | inactive: 0.652 |
| EMFNPYYGLFE [NEDD4L_Y679] | inactive: 1.48 |
| SFLSFYTSHVQ [NEFL_Y443_P440L_YF] | inactive: 2.92 |
| RAFSWYQHQRA [NDST1_Y714_YF] | inactive: 1.8 |
| KEDSAYGSQSV [NFKB2_Y868] | inactive: 0.452 |
| KEGSAYGSQSV [NFKB2_Y868_D865G] | inactive: 0.661 |
| SESSFYKSLNL [NGEF_Y289_A286S_YF] | inactive: 0.944 |
| YLAATYPTVGQ [NF1_Y2508] | inactive: 0.806 |
| RSFPSYFTSHV [NEFL_Y442_YF] | inactive: 0.827 |
| ILGRTHFVNHE [NEDD4_Y627_Y627H_YF] | inactive: 1.13 |
| SFPSYYTSHVQ [NEFL_Y443] | inactive: 1.19 |
| FLAAIYPTVGQ [NF1_Y2508_T2507I_YF] | inactive: 1.35 |
| FPKDVYVDSKD [NDUFAF4_Y69_L65P] | inactive: 0.783 |
| MFNPYYGLFEY [NEDD4L_Y680] | inactive: 2.18 |
| SIGLGYHKDLQ [NF1_Y1169] | inactive: 0.542 |

target: SHP2 N-SH2 domain L43F; test: as above; details: peptide library: pTyr-Var

| Binder | enrichment score |
| --- | --- |
| ERNTVYSSSGV [NELL2_Y350] | inactive: 0.677 |
| SLFNGYVFSGV [NEIL3_Y71_YF] | inactive: 1.04 |
| KGSEGYLAATF [NF1_Y2503_YF] | inactive: 0.818 |
| MFNPFYGLFEF [NEDD4L_Y680_YF] | active: 3.95 |
| KGSEGYLAAIF [NF1_Y2503_T2507I_YF] | inactive: 0.455 |
| EMFNPYYGLFE [NEDD4L_Y679] | inactive: 1.23 |
| SFLSFYTSHVQ [NEFL_Y443_P440L_YF] | inactive: 2.76 |
| RAFSWYQHQRA [NDST1_Y714_YF] | inactive: 2.08 |
| KEDSAYGSQSV [NFKB2_Y868] | inactive: 0.496 |
| KEGSAYGSQSV [NFKB2_Y868_D865G] | inactive: 0.613 |
| SESSFYKSLNL [NGEF_Y289_A286S_YF] | inactive: 0.771 |
| YLAATYPTVGQ [NF1_Y2508] | inactive: 0.712 |
| RSFPSYFTSHV [NEFL_Y442_YF] | inactive: 1.48 |
| ILGRTHFVNHE [NEDD4_Y627_Y627H_YF] | inactive: 1.33 |
| SFPSYYTSHVQ [NEFL_Y443] | inactive: 1.3 |
| FLAAIYPTVGQ [NF1_Y2508_T2507I_YF] | inactive: 1.59 |
| FPKDVYVDSKD [NDUFAF4_Y69_L65P] | inactive: 0.629 |
| MFNPYYGLFEY [NEDD4L_Y680] | inactive: 2.38 |
| SIGLGYHKDLQ [NF1_Y1169] | inactive: 0.708 |

target: SHP2 N-SH2 domain T42A; test: as above; details: peptide library: pTyr-Var

| Binder | enrichment score |
| --- | --- |
| ERNTVYSSSGV [NELL2_Y350] | inactive: 0.56 |
| SLFNGYVFSGV [NEIL3_Y71_YF] | inactive: 1.15 |
| KGSEGYLAATF [NF1_Y2503_YF] | inactive: 0.558 |
| MFNPFYGLFEF [NEDD4L_Y680_YF] | inactive: 3.12 |
| KGSEGYLAAIF [NF1_Y2503_T2507I_YF] | inactive: 0.566 |
| EMFNPYYGLFE [NEDD4L_Y679] | inactive: 1.32 |
| SFLSFYTSHVQ [NEFL_Y443_P440L_YF] | inactive: 3.09 |
| RAFSWYQHQRA [NDST1_Y714_YF] | inactive: 1.59 |
| KEDSAYGSQSV [NFKB2_Y868] | inactive: 0.541 |
| KEGSAYGSQSV [NFKB2_Y868_D865G] | inactive: 0.46 |
| SESSFYKSLNL [NGEF_Y289_A286S_YF] | inactive: 0.561 |
| YLAATYPTVGQ [NF1_Y2508] | inactive: 0.967 |
| RSFPSYFTSHV [NEFL_Y442_YF] | inactive: 1.17 |
| ILGRTHFVNHE [NEDD4_Y627_Y627H_YF] | inactive: 0.937 |
| SFPSYYTSHVQ [NEFL_Y443] | inactive: 0.942 |
| FLAAIYPTVGQ [NF1_Y2508_T2507I_YF] | inactive: 1.68 |
| FPKDVYVDSKD [NDUFAF4_Y69_L65P] | inactive: 0.608 |
| MFNPYYGLFEY [NEDD4L_Y680] | inactive: 2.12 |
| SIGLGYHKDLQ [NF1_Y1169] | inactive: 0.573 |

target: SHP2 N-SH2 domain T52S; test: as above; details: peptide library: pTyr-Var

| Binder | enrichment score |
| --- | --- |
| ERNTVYSSSGV [NELL2_Y350] | inactive: 0.654 |
| SLFNGYVFSGV [NEIL3_Y71_YF] | inactive: 1.09 |
| KGSEGYLAATF [NF1_Y2503_YF] | inactive: 0.568 |
| MFNPFYGLFEF [NEDD4L_Y680_YF] | active: 4.05 |
| KGSEGYLAAIF [NF1_Y2503_T2507I_YF] | inactive: 0.564 |
| EMFNPYYGLFE [NEDD4L_Y679] | inactive: 1.33 |
| SFLSFYTSHVQ [NEFL_Y443_P440L_YF] | inactive: 3.09 |
| RAFSWYQHQRA [NDST1_Y714_YF] | inactive: 1.68 |
| KEDSAYGSQSV [NFKB2_Y868] | inactive: 0.507 |
| KEGSAYGSQSV [NFKB2_Y868_D865G] | inactive: 0.538 |
| SESSFYKSLNL [NGEF_Y289_A286S_YF] | inactive: 0.64 |
| YLAATYPTVGQ [NF1_Y2508] | inactive: 0.96 |
| RSFPSYFTSHV [NEFL_Y442_YF] | inactive: 1.19 |
| ILGRTHFVNHE [NEDD4_Y627_Y627H_YF] | inactive: 1.36 |
| SFPSYYTSHVQ [NEFL_Y443] | inactive: 1 |
| FLAAIYPTVGQ [NF1_Y2508_T2507I_YF] | inactive: 1.89 |
| FPKDVYVDSKD [NDUFAF4_Y69_L65P] | inactive: 0.809 |
| MFNPYYGLFEY [NEDD4L_Y680] | inactive: 2.39 |
| SIGLGYHKDLQ [NF1_Y1169] | inactive: 0.892 |

target: SHP2 N-SH2 domain wild-type; test: as above; details: peptide library: pTyr-Var

| Binder | enrichment score |
| --- | --- |
| ERNTVYSSSGV [NELL2_Y350] | inactive: 0.747 |
| SLFNGYVFSGV [NEIL3_Y71_YF] | inactive: 0.949 |
| KGSEGYLAATF [NF1_Y2503_YF] | inactive: 0.746 |
| MFNPFYGLFEF [NEDD4L_Y680_YF] | inactive: 3.07 |
| KGSEGYLAAIF [NF1_Y2503_T2507I_YF] | inactive: 0.582 |
| EMFNPYYGLFE [NEDD4L_Y679] | inactive: 1.33 |
| SFLSFYTSHVQ [NEFL_Y443_P440L_YF] | inactive: 3.16 |
| RAFSWYQHQRA [NDST1_Y714_YF] | inactive: 2.13 |
| KEDSAYGSQSV [NFKB2_Y868] | inactive: 0.527 |
| KEGSAYGSQSV [NFKB2_Y868_D865G] | inactive: 0.437 |
| SESSFYKSLNL [NGEF_Y289_A286S_YF] | inactive: 0.907 |
| YLAATYPTVGQ [NF1_Y2508] | inactive: 0.801 |
| RSFPSYFTSHV [NEFL_Y442_YF] | inactive: 0.881 |
| ILGRTHFVNHE [NEDD4_Y627_Y627H_YF] | inactive: 0.99 |
| SFPSYYTSHVQ [NEFL_Y443] | inactive: 1.51 |
| FLAAIYPTVGQ [NF1_Y2508_T2507I_YF] | inactive: 1.31 |
| FPKDVYVDSKD [NDUFAF4_Y69_L65P] | inactive: 0.744 |
| MFNPYYGLFEY [NEDD4L_Y680] | inactive: 1.94 |
| SIGLGYHKDLQ [NF1_Y1169] | inactive: 0.899 |
